The name of at least one read-out is uncertain.
System: Herpes simplex 1 Virus (HSV-1)
Assay: Activity against systemic HSV-1 infection in NMRI mice, oral treatment
Format: in vivo, NMRI-Mäuse
From the text: Wirkung gegen systemische Herpes simplex 1 Virus (HSV-1) Infektion: NMRI-Mäuse, spezifisch pathogenfrei, im Gewicht von 15 bis 18 g wurden intraperitoneal mit HSV-1 infiziert und anschließend mit den erfindungsgemäßen Verbindungen oral therapiert. Die Behandlung erfolgte erstmals 3 Stunden nach der Infektion und wurde zweimal täglich über 4 Tage fortgesetzt. Der Behandlungserfolg wurde anhand des Krankheitsverlaufes und der Überlebensrate gegenüber der unbehandelten Infektionskontrolle bestimmt. Letztere erhielt anstelle der erfindungsgemäßen Verbindungen physiologische Kochsalzlösung appliziert. Die Beobachtungszeit betrug zwei Wochen. Tabelle 1 zeigt die Ergebnisse dieser Untersuchung.

SMILES	mittlere Überlebenszeit (Tage) (Dosierung 9 x 10 µmol/kg)	Überlebende/ Gruppegröße (Dosierung 9 x 10 µmol/kg)	mittlere Überlebenszeit (Tage) (Dosierung 9 x 30 µmol/kg)	Überlebende/ Gruppegröße (Dosierung 9 x 30 µmol/kg)	Überlebende/ Gruppegröße (Dosierung 9 x 100 µmol/kg)	Überlebende/ Gruppegröße (Dosierung 9 x 31 µmol/kg)	Überlebende/ Gruppegröße (Dosierung 9 x 93 µmol/kg)	Überlebende/ Gruppegröße (Dosierung 9 x 9,3 µmol/kg)	mittlere Überlebenszeit (Tage) (Dosierung 9 x 3 µmol/kg)	Überlebende/ Gruppegröße (Dosierung 9 x 3 µmol/kg)	mittlere Überlebenszeit (Tage) (Dosierung 9 x 100 µmol/kg)
CC(C)(C)C(=O)OCC(COC(=O)C(C)(C)C)OCn1cnc2nc(N)ncc21 [Beispiel 1, 2-Amino-7-[(1,3-bis-pivaloyloxy-2-propoxy)methyl]purin]	7 ± 1,7 Tage	2/5	8,4 ± 2,2 Tage	0/5	5/5	–	–	–	–	–	–
CCCCC(=O)OCC(COC(=O)CCCC)OCn1cnc2nc(N)ncc21 [Beispiel 2, 2-Amino-7-[(1,3-bis-valeroyloxy-2-propoxy)methyl]purin]	–	2/5	–	5/5	5/5	–	–	–	–	–	–
CCCCC(=O)OCC(CO)OCn1cnc2nc(N)ncc21 (centres unmarked) [Beispiel 3, 2-Amino-7-[(1-hydroxy-3-valeroyloxy-2-propoxy)methyl]purin]	–	–	–	–	–	5/5	5/5	4/5	–	–	–
COCC(=O)OCC(COC(=O)COC)OCn1cnc2nc(N)ncc21 [Beispiel 6, 2-Amino-7-[(1,3-bis-methoxyacetoxy-2-propoxy)methyl]purin]	–	4/5	–	5/5	5/5	–	–	–	–	–	–
CCOCC(=O)OCC(COC(=O)COCC)OCn1cnc2nc(N)ncc21 [Beispiel 7, 2-Amino-7-[(1,3-bis-ethoxyacetoxy-2-propoxy)methyl]purin]	9,2 ± 2,6 Tage	1/5	–	–	4/5	–	–	–	8,7 ± 2,6 Tage	1/5	7,0 Tage
Nc1ncc2c(ncn2COC(COC(=O)C2CCCCC2)COC(=O)C2CCCCC2)n1 [Beispiel 9, 2-Amino-7-[(1,3-bis-cyclohexancarbonyloxy-2-propoxy)methyl]purin]	14 Tage	4/5	–	5/5	–	–	–	–	10 ± 2,2 Tage	0/5	–
Nc1ncc2c(ncn2COC(CO)COC(=O)C2CCCCC2)n1 (centres unmarked) [Beispiel 10, 2-Amino-7-[(1-cyclohexancarbonyloxy-3-hydroxy-2-propoxy)methyl] purin]	7 Tage	4/5	–	5/5	–	–	–	–	7,3 ± 2,1 Tage	2/5	–
Nc1ncc2c(ncn2COC(COC(=O)c2ccccc2)COC(=O)c2ccccc2)n1 [Beispiel 11, 2-Amino-7-[(1,3-bis-benzoyloxy-2-propoxy)methyl]purin]	10,5 ± 4,9 Tage	3/5	–	5/5	–	–	–	–	8,7 ± 1,5 Tage	2/5	–
Nc1ncc2c(ncn2COC(COC(=O)c2ccsc2)COC(=O)c2ccsc2)n1 [Beispiel 13]	8,0 Tage	4/5	–	5/5	–	–	–	–	9,8 ± 2,9 Tage	0/5	–
Nc1ncc2c(ncn2COC(CO)COC(=O)c2ccsc2)n1 (centres unmarked) [Beispiel 14]	10,7 ± 3,0 Tage	1/5	–	5/5	–	–	–	–	9,0 ± 1,8 Tage	1/5	–
Nc1ncc2c(ncn2COC(COC(=O)Cc2cccnc2)COC(=O)Cc2cccnc2)n1 [Beispiel 15]	9,8 ± 2,2 Tage	1/5	8 Tage	4/5	–	–	–	–	8,5 ± 0,7 Tage	3/5	–
Nc1ncc2c(ncn2COC(CO)CO)n1 [Formel 1, R1=R2=H (=Verb. der Formel 1'), 2-Amino-7-[(1,3-dihydroxy-2-propoxy)methyl]purin, reference compound]	10,5 ± 0,7 Tage	3/5	9,5 ± 1,3 Tage	1/5	5/5	–	–	–	–	–	–

From patent EP0693071B1, “NEW CARBOXYLIC-ACID ESTERS OF 2-AMINO-7-(1,3-DIHYDROXY-2-PROPOXYMETHYL)PURINE, THE PREPARATION OF SUCH ESTERS AND THEIR USE” (HOECHST AKTIENGESELLSCHAFT, priority 1993, dated 1994)
